PubChem BioAssay AID504339 (National Center for Advancing Translational Sciences (NCATS), 2011)
In all, about 390,000 compounds went through this assay and about 17,000 (4.4%) were called active. Inconclusive results, whose numbers are uncertain, are shown with a selection of clear calls. The call rests on the fitted dose curve; in most records, active means well fitted inhibition curve with a large enough effect; inconclusive means small, poorly fitted or top-dose-only effect; inactive means no such curve, though single readings can be large or run the other way. A potency beside an inconclusive call is a rough fit, not a confirmed value.

Biological target: Lysine-specific demethylase 4A (Homo sapiens) (UniProt O75164)
UniProt O75164, sequence (O75164 whole entry, looked up, the tested form may be a part): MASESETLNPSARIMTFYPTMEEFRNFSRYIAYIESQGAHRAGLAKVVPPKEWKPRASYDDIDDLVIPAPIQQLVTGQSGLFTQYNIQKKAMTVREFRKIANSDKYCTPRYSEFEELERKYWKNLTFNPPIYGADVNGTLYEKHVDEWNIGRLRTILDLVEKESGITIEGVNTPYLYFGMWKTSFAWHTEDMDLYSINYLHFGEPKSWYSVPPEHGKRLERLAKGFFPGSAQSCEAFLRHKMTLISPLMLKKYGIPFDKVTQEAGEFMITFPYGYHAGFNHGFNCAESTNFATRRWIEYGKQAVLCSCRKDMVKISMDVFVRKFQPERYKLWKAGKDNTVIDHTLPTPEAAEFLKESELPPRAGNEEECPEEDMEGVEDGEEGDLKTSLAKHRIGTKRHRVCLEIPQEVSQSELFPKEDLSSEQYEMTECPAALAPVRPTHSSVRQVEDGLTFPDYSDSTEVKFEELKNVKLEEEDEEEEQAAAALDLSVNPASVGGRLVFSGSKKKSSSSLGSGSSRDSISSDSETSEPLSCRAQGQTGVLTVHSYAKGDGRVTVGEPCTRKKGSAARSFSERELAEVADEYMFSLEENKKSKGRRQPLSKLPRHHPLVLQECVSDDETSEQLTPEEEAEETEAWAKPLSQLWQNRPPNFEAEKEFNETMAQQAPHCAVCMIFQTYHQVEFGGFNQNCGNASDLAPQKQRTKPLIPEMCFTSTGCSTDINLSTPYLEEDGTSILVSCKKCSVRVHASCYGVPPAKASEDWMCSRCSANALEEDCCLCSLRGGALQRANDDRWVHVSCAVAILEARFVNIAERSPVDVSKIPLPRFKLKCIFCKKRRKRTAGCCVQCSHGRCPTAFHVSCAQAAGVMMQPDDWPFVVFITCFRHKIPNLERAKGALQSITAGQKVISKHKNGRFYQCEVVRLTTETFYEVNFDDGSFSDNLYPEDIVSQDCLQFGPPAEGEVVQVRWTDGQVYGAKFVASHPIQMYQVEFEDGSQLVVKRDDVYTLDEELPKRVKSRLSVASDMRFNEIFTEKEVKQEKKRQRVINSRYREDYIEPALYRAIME
Test: qHTS Assay for Inhibitors of JMJD2A-Tudor Domain; further: nearly all actives have a fitted effect of over 50% in size
Details: AlphaScreen JMJD2A-Tudor / H3K4me3 peptide binding; series mostly up to 114 µM
Potency means the concentration at half of the fitted maximal effect; tags describe the fitted curve by direction and shape.

| Structure (SMILES) | Potency |
| --- | --- |
| COc1ccc(N2CCN(c3cc(C)c4cccc(C)c4n3)CC2)cc1 | active: 22.4 µM |
| Cc1ccc(S(=O)(=O)N2CCCC2)cc1C(=O)NCCN1CCOCC1 | inactive |
| O=C(c1ccc(NC2=NC3CS(=O)(=O)CC3S2)cc1)N1CCN(c2ccccc2F)CC1 (centres undefined) | inconclusive: 100 µM [inhibitor, partial curve, poor fit] |
| COc1cc(C2C(C(=O)c3ccc(C)o3)=C(O)C(=O)N2c2cc(C)on2)ccc1O (centres undefined) | inconclusive: 89.1 µM [inhibitor, single point] |
| S=c1[nH]nc(COc2ccccc2)n1-c1ccc(Cl)cc1 | inactive |
| COc1ccccc1N1CCN(/N=C/c2cc(Br)ccc2F)CC1 | inconclusive: 56.2 µM [inhibitor, partial curve] |
| CCOC(=O)N/N=C/c1cc(C)n(-c2cccc3ccccc23)c1C | inactive |
| COc1ccccc1-c1nnc(SC(C(=O)c2c[nH]c3ccccc23)c2ccccc2)n1C (centres undefined) | inconclusive: 25.1 µM [inhibitor, full curve] |
| COc1ccc(CNC(=O)C2CCN(C(=O)N3CCOc4ccc(Cl)cc43)CC2)cc1 | inconclusive: 79.4 µM [inhibitor, partial curve] |
| Cc1ccc(C)c(S(=O)(=O)Nc2ccc3oc(C)c(C(=O)O)c3c2)c1 | active: 50.1 µM |
| CCOC(=O)CC(=O)COc1nc2cc3c(nc2o1)CCCC3 | inconclusive: 39.8 µM [inhibitor, single point] |
| CN(C)CCN(C(=O)c1ccc2ccccc2c1)c1nc2c(F)cccc2s1 | inconclusive: 39.8 µM [inhibitor, partial curve] |
| CCC(=O)Nc1ccc(NC(=O)CSc2nnnn2C(C)C)cc1 | inconclusive: 56.2 µM [inhibitor, partial curve] |
| Cc1ccc2[nH]c(=O)c(CN(CCc3ccccc3)C(c3nnnn3Cc3ccco3)C(C)C)cc2c1 (centres undefined) | inconclusive: 44.7 µM [inhibitor, partial curve] |
| COCCN(CC(=O)NCC1CCCO1)C(=O)CCC(=O)Nc1cc(C)on1 (centres undefined) | inactive |
| CCCOC1(NC(=O)c2ccccc2)C(C)=CC(=O)C=C1C | inconclusive: 100 µM [inhibitor, single point] |
| Cc1cc(Br)ccc1NC(=O)CNC(=O)COc1ccccc1C | inconclusive: 89.1 µM [inhibitor, single point] |
| COC(=O)N/N=C/c1cn(CCCOc2ccccc2)c2ccccc12 | inconclusive: 39.8 µM [inhibitor, partial curve] |
| COc1ccc2c(c1)c(=O)oc1cc(OCC(=O)N3CCc4ccccc4C3)ccc12 | active: 56.2 µM |
| O=C(O)c1ccc(S(=O)(=O)N2CCc3ccccc3C2)cc1 | inconclusive: 89.1 µM [inhibitor, single point] |
| S=C(Nc1ccc(-c2nc3ccccc3[nH]2)cc1)Nc1cccnc1 | inactive |
| CCOC(=O)C1=C(C)N=c2s/c(=C/c3ccc(OCC(=O)O)cc3)c(=O)n2C1c1ccc(OC)cc1OC (centres undefined) | active: 50.1 µM |

| Structure (SMILES) | Potency |
| --- | --- |
| O=C(Cc1ccc(NC(=O)N2CCSc3ncccc32)cc1)NCc1cccc(Cl)c1 | inactive |
| COc1ccc(OC)c(NC(=O)NNC(=O)CCCOc2ccc(Cl)cc2C)c1 | inconclusive: 39.8 µM [inhibitor, partial curve] |
| CN(C)C1(CNC(=O)C2CCN(S(=O)(=O)c3cccc(C(F)(F)F)c3)CC2)CCCCC1 | inactive |
| NS(=O)(=O)c1ccc(CCNC(=O)c2cc(-c3ccco3)nc3ccccc23)cc1 | inconclusive: 70.8 µM [inhibitor, partial curve] |
| CCN1CCN(C(=S)c2ccc([N+](=O)[O-])cc2)CC1 | inconclusive: 89.1 µM [inhibitor, single point] |
| Cc1nn(-c2ccccn2)c2nc(-c3cccs3)cc(C(=O)NCc3ccco3)c12 | inconclusive: 89.1 µM [inhibitor, single point] |
| O=C(Nc1cccc(OCc2cc(=O)n3ccccc3n2)c1)Nc1cccc(C(F)(F)F)c1 | inactive |
| Nc1ccc(-c2cnc(N)c(C(=O)c3cccnc3)n2)cn1 | inconclusive: 89.1 µM [inhibitor, single point] |
| COc1cccc(NC(=O)Nc2cccn(Cc3ccccc3)c2=O)c1 | inconclusive: 50.1 µM [inhibitor, partial curve] |
| O=C(Cc1ccccc1)N/N=C/c1cc(Br)cc(Cl)c1O | inactive |
| CCOc1ccccc1CNC(=O)c1oc2c(c1C)-c1nn(Cc3cccc(Cl)c3)cc1CC2 | inconclusive: 12.6 µM [inhibitor, full curve] |
| COc1ccc(-c2nnc(SCC(=O)NC3CC3)o2)c(OC)c1 | inactive |
| COc1ccc(-n2cc(-c3ccccc3)c3c(N4CC(C)OC(C)C4)ncnc32)cc1 (centres undefined) | inconclusive: 44.7 µM [inhibitor, partial curve] |
| O=C(Nc1nccs1)c1ccc(S(=O)(=O)N2CCOCC2)cc1 | inconclusive: 63.1 µM [inhibitor, partial curve, poor fit] |
| CCOC(=O)C1CCCN(C(=O)c2cc(Nc3ccc(OC)cc3OC)nc3ccccc23)C1 (centres undefined) | inconclusive: 39.8 µM [inhibitor, full curve, poor fit] |
| CNc1ccccc(C(=O)/C=C/c2ccccc2OC)c1=O | inconclusive: 56.2 µM [inhibitor, partial curve] |
| CC(C)CCN=Cc1c(O)n(-c2ccccc2)c(=O)c2ccccc12 | inconclusive: 56.2 µM [inhibitor, partial curve] |
| COc1ccc(Oc2nc3c(c(=O)n(C)c(=O)n3C)n2Cc2ccc(Cl)cc2Cl)cc1 | inactive |
| CC(C)C[C@@H](CN)NC(=O)c1nc[nH]c1C(=O)N[C@@H](C)C(=O)CNC[C@H](C)NC(=O)c1nc[nH]c1C(=O)N[C@@H](C)C(=O)O | active: 50.1 µM |
| O=C(NC1CCN(Cc2ccccc2)CC1)c1ccc(Cn2c(=O)c3ccccc3n(Cc3cccc(F)c3)c2=O)cc1 | inactive |
| O=Cc1ccc(-c2ccccc2C(=O)O)o1 | inactive |
| C/C=C\C=C\C(=O)N1CC2(CC(c3cccc(NC(=O)COc4ccc(Cl)cc4)c3)=NO2)C[C@H]1C(N)=O (some centres undefined) | inconclusive: 112 µM [inhibitor, partial curve, poor fit] |
